The supplement of paper PMC10502849
Structures can show the parent of a compound that is named as a salt. The list shows a part of the results. Most values come without repeats; read them as rough.

How the values were obtained:
[1] = tested on: H9 teratoma-derived LAM model cells, TSC2-/-; experiment: percent SyTOX+ dead cells; higher = more cytotoxic; settings: 5 µM, treatment time 72 h, culture: 3D hyaluronic acid hydrogel
[2] = tested on: H9 teratoma-derived LAM model cells, WT; experiment: percent SyTOX+ dead cells; higher = more cytotoxic; settings: 5 µM, treatment time 72 h, culture: 3D hyaluronic acid hydrogel, genotype: WT
[3] = tested on: H9 teratoma-derived LAM model cells, TSC2-/-; experiment: percent of cells invaded past median invasion distance of vehicle control; LAM is lymphangioleiomyomatosis; the cells come from teratomas of the human stem cell line H9; higher = more invasion; extreme values may be limits of the assay; settings: 5 µM, treatment time 72 h, culture: 3D hyaluronic acid hydrogel
[4] = tested on: H9 teratoma-derived LAM model cells, WT; experiment: as above; settings: 5 µM, treatment time 72 h, culture: 3D hyaluronic acid hydrogel, genotype: WT
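Throughout, for percent SyTOX+ dead cells: cells seeded atop a hyaluronic acid gel crosslinked via MMP-cleavable peptides, containing vitronectin peptides and methylcellulose, imaged live by high-content microscopy with automated analysis, one technical replicate per compound.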
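Throughout, for percent of cells invaded past median invasion distance of vehicle control: live cells imaged by high content microscopy and scored with in-house automated image analysis, one technical replicate per compound in each genotype and rapamycin condition.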

SMILES	percent SyTOX+ dead cells ([1]; rapamycin 0 nM)	percent SyTOX+ dead cells ([1]; rapamycin 20 nM)	percent SyTOX+ dead cells ([2]; rapamycin 0 nM)	percent SyTOX+ dead cells ([2]; rapamycin 20 nM)	percent ([3]; rapamycin 0 nM)	percent ([3]; rapamycin 20 nM)	percent ([4]; rapamycin 0 nM)	percent ([4]; rapamycin 20 nM)
CO[C@H]1C[C@@H]2CC[C@@H](C)[C@@](O)(O2)C(=O)C(=O)N2CCCC[C@H]2C(=O)O[C@H]([C@H](C)C[C@@H]2CC[C@@H](O)[C@H](OC)C2)CC(=O)[C@H](C)/C=C(\C)[C@@H](O)[C@@H](OC)C(=O)[C@H](C)C[C@H](C)/C=C/C=C/C=C/1C [Rapamycin, Sirolimus, Rapamune]	5.68%	12.5%	12.1%	10%	31.8%	14.8%	20.5%	24.4%
Nc1cc(N)c(N)cc1N [FAK Inhibitor 14]	15.2%	7.36%	18.2%	18%	39%	36.2%	2.35%	30.1%
CC(=O)O[C@H]1C(=O)[C@@]2(C)[C@H]([C@H](OC(=O)c3ccccc3)[C@]3(O)C[C@H](OC(=O)[C@H](O)[C@@H](NC(=O)c4ccccc4)c4ccccc4)C(C)=C1C3(C)C)[C@]1(OC(C)=O)CO[C@@H]1C[C@@H]2O [Paclitaxel, Taxol]	58.7%	39.3%	69.2%	47.2%	15.1%	4.08%	2.2%	5.6%
c1cc(OCCN2CCCCC2)cc(-c2n[nH]c3ccc(-c4nnc[nH]4)cc23)c1	9.19%	2.02%	16.9%	12.4%	24.1%	6.45%	11.2%	7.76%
O=c1oc2c(O)c(O)cc3c(=O)oc4c(O)c(O)cc1c4c23 [Ellagic acid]	4.07%	8.78%	7.14%	11.9%	16.3%	11.3%	24.8%	19.4%
COc1ccc(-c2ccc3ncc4c(c3c2)n(-c2ccc(N3CCNCC3)c(C(F)(F)F)c2)c(=O)n4C)cn1	52.4%	52.1%	63.6%	54.7%	0%	16.7%	0%	0%
CC(C)(C)Cn1c(N)nc2ccc(-c3[nH]c(C(C)(C)C)nc3-c3ccc(F)cc3)nc21	7.66%	3.74%	20.5%	10.4%	89%	62.9%	59.2%	13.3%
Cc1ccccc1C(C(=O)NC1CCCCC1)N(C(=O)CNc1ccc(C#N)cc1)c1cccc(F)c1 (stereo unspecified)	18.3%	14.3%	15.7%	14.5%	28.5%	25.3%	22.5%	22.4%
O=C(Nc1ccc(OC(F)(F)F)cc1)c1sccc1NCc1ccnc2ccccc12	6.64%	11.3%	36.9%	26%	84.8%	56.8%	59.6%	7.29%
Cn1cc(C(=O)Cc2ccccc2)cc1/C=C/C(=O)NO [APHA-8, APHA Compound 8]	13.8%	19.9%	20.4%	14.8%	58.5%	43.5%	29.2%	35.6%
CCNC(=O)Nc1ccc(Oc2ncnc(N)c2/C=N/OC)cc1Cl	5.38%	1.04%	8.63%	10%	73.5%	66.3%	47.7%	28%
COc1ccccc1S(=O)(=O)Nc1ccc2c(c1)CN(C)C(=O)N2	7.18%	8.86%	10.3%	13.3%	72.2%	69.9%	59%	54.3%
N#CC1(c2ccc(NC(=O)c3cccnc3NCc3ccncc3)cc2)CCCC1 [Apatinib mesylate, YN-968D1]	3.08%	5.43%	16.3%	13.1%	34.6%	51.9%	17.8%	29.7%
Cc1cccc(C)c1OCC(=O)N[C@@H](Cc1ccccc1)[C@@H](O)C[C@H](Cc1ccccc1)NC(=O)[C@H](C(C)C)N1CCCNC1=O [Lopinavir, ABT-378]	15.6%	7.71%	4.91%	3.68%	66.3%	18.8%	56.9%	75%
CSc1cccc(Nc2ncc3cc(-c4c(Cl)cccc4Cl)c(=O)n(C)c3n2)c1	69.8%	78.9%	94.7%	86.4%	3.14%	1.71%	0%	0%
Cn1cc(/C=C2\C(=O)Nc3cccnc32)c2ccccc21	7.74%	15.9%	19.3%	25%	56.5%	43.5%	9.9%	24.2%
Cc1ccccc1C(C(=O)NC1CCCCC1)N(C(=O)Cn1ccnc1C)c1cccc(F)c1 (stereo unspecified)	25.1%	17.6%	18.9%	22.9%	51%	13.7%	43.6%	41.1%
O=C(Nc1ccc([N+](=O)[O-])cc1O)Nc1ccccc1Br	20.4%	22.2%	39.6%	2.04%	49.7%	37.2%	1.04%	8.16%
CC(C)(C)c1cc(C(=O)O)c(NC(=O)Nc2ccc3[nH]ncc3c2)s1	2.02%	2.71%	8.52%	6.85%	86.2%	48%	60.6%	27.9%
c1cncc(CN2CCC(n3ncc4c(N5CCOCC5)nc(-c5ccc6[nH]ccc6c5)nc43)CC2)c1	46.1%	14.3%	67.4%	65.6%	6.74%	7.79%	0%	5.96%
Cn1cc(-c2cnc3ccc4ccc(CS(=O)(=O)NCc5ccccn5)cc4c(=O)c3c2)cn1	7.07%	2%	9.74%	15.5%	62.1%	81%	53.7%	48.1%
COC(=O)Nc1ccc(-c2nc(N3CCOCC3)c3cnn(C4CCN(C(=O)OC)CC4)c3n2)cc1	3.92%	5.36%	11.9%	15.1%	63.4%	77.7%	64.3%	64.6%
Cc1cc(Nc2nc(N[C@@H](C)c3ccc(F)cc3)c(C#N)cc2F)n[nH]1	59.8%	62.8%	75.5%	63.6%	3.77%	11.5%	0%	0%

SMILES	percent SyTOX+ dead cells ([1]; rapamycin 0 nM)	percent SyTOX+ dead cells ([1]; rapamycin 20 nM)	percent SyTOX+ dead cells ([2]; rapamycin 0 nM)	percent SyTOX+ dead cells ([2]; rapamycin 20 nM)	percent ([3]; rapamycin 0 nM)	percent ([3]; rapamycin 20 nM)	percent ([4]; rapamycin 0 nM)	percent ([4]; rapamycin 20 nM)
CCCCCCCC(=O)OCCOC(=O)CCCCCCC [Dioctanoylglycol]	7.58%	10.2%	6.23%	12.5%	16.9%	11.7%	43.6%	11.1%
O=S(=O)(NCCSSCCNS(=O)(=O)c1cc(Cl)ccc1Cl)c1cc(Cl)ccc1Cl	12.6%	18.2%	10.2%	7.74%	46.5%	35.6%	35.3%	37.1%
CN(C)CCOc1ccc(-c2nc(-c3ccncc3)c(-c3ccc4c(c3)CC/C4=N\O)[nH]2)cc1	9.85%	8.45%	19.4%	11.2%	37.6%	20.1%	14.7%	17.5%
NCC(=O)Nc1ccc(-n2nc(C(F)(F)F)cc2-c2ccc3c(ccc4ccccc43)c2)cc1	14.5%	6.7%	60.1%	13.3%	62.9%	21.4%	5.34%	76%
O=C1NC(=O)C(c2ccccc2[N+](=O)[O-])=C1Nc1ccc(O)c(Cl)c1	10.4%	16%	13.6%	14.4%	52.1%	28.4%	12.1%	8.56%
O=C(O)C(=O)Nc1sc2c(c1C(=O)O)CCNC2	10.4%	16.4%	18.5%	11.6%	65.6%	52.7%	50.4%	56.9%
O=C1NC(=O)c2c1c(-c1ccccc1)cc1[nH]c3ccc(O)cc3c21	48.7%	18.2%	29.2%	22.8%	1.32%	9.09%	0%	0%
COc1cc(Nc2c(C#N)cnc3cc(OCCCN4CCN(C)CC4)c(OC)cc23)c(Cl)cc1Cl [Bosutinib, SKI-606, Bosulif]	35.7%	33.9%	39.8%	27.6%	1.43%	3.23%	0%	0%
Cc1ccc(NC(=O)c2ccc(CN3CCN(C)CC3)cc2)cc1Nc1nccc(-c2cccnc2)n1	12.4%	15.5%	13.6%	13.5%	45.7%	24.9%	29%	19.6%
C/C(=N\N=C(N)N)c1ccc(NC(=O)c2cc3cccc([N+](=O)[O-])c3[nH]2)cc1	8.99%	8.19%	11.3%	8.11%	36.8%	16.8%	14.5%	20.1%
O=C(Nc1cccc2cccnc12)c1ccc(N2C(=O)[C@@H]3[C@H](C2=O)[C@@H]2C=C[C@H]3C2)cc1 [IWR-1-endo]	4.92%	5.2%	1.56%	0.48%	44.7%	35.4%	65.4%	68.7%
O=C1c2ccc(O)c(O)c2C(=O)c2c(O)ccc(O)c21 [Quinalizarin]	5.88%	4.98%	9.95%	10.9%	62%	92.1%	75.3%	87%
Cc1cc(-c2ccc(CC(=O)Nc3ccc(-c4cccnc4)cc3)cc2)ccn1	4.48%	4.81%	6.35%	12.4%	38.3%	25.4%	12.7%	15.5%
Cc1cc(C(=O)Nc2cc(Nc3ccc4c(/C=C/c5ccccn5)n[nH]c4c3)ccc2F)n(C)n1	38.1%	15%	62.1%	50.4%	17.7%	14.5%	0%	7.83%
O=C(O)c1ccc2c(c1)nc(Nc1cccc(Cl)c1)c1ccncc12	8.33%	2.59%	18.2%	18.5%	65.3%	99%	26.2%	48.8%
COc1cc(Nc2ncc3c(n2)-c2ccc(Cl)cc2C(c2c(F)cccc2OC)=NC3)ccc1C(=O)O	17.7%	15.2%	51.4%	61.4%	49.8%	42%	18.5%	9.09%
Nc1ccccc1NC(=O)c1ccc(CNc2nccc(-c3cccnc3)n2)cc1 [MGCD0103, MGCD-0103, MG-0103, Mocetinostat]	39.8%	32.5%	32.2%	27.1%	9.14%	9.64%	0%	12.4%
CC(C)(C)c1cc(NC(=O)Nc2ccc(-c3cn4c(n3)sc3cc(OCCN5CCOCC5)ccc34)cc2)no1	14.6%	11.7%	18.8%	11.7%	36.4%	31.6%	13%	27.1%
NS(=O)(=O)c1ccc(Nc2nc(OCC3CCCCC3)c3[nH]cnc3n2)cc1	22.6%	19.1%	11.2%	12.9%	8.49%	19.1%	1.12%	3.68%
CNc1nc(-c2ccc3c(N)n[nH]c3c2)cc(N2C[C@@H](C(=O)NC3CCCCC3)CC[C@H]2C)n1	3.46%	3.94%	18.1%	24.5%	54.5%	57.7%	30.9%	10.6%
CCOc1ccc(Nc2nc(-c3c(C)nc4ccccn34)cs2)cc1 [SHH Antagonist, JK 184]	29.8%	32.1%	62.6%	30%	66.2%	59.5%	9.52%	4.29%
Cc1ccc(C(=O)Nc2ccc(CN3CCN(C)CC3)c(C(F)(F)F)c2)cc1C#Cc1cnc2cccnn12	–	–	–	–	2.69%	5.19%	0%	0%
